Assay results as given in PubChem BioAssay (EPA / NIEHS).
For part of these data: Most of the hits are listed elsewhere, so they are rarer here than in the full data. Results filed as inconclusive are left out. This is a selection; strong and weak results do not stand in their true shares. Some structures have more than one record in an assay (separate samples or runs), and their calls can disagree. Active and inactive are the calls of the source. Rule for the calls, unless noted: active = hit-call score of the fitted dose curve at least 0.9, where 1 is the maximum; inactive = score below 0.9.

How the values were obtained:
[1] = read-out: Vascular cell adhesion molecule 1 (VCAM1), VCAM1 (gene 7412); experiment: BSK_hDFCGF_VCAM1: BioMAP Diversity Plus: hDFCGF Assay for Vascular cell adhesion molecule 1 (VCAM1) Biomarker Activity (AID 2283065); settings: actives raise or lower the signal; primary human foreskin fibroblasts;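 note: VCAM-1 protein level quantified by ELISA after 24 h chemical exposure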
In short: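 ELISA readout of VCAM-1 on human dermal fibroblast primary cultures, 24 h after chemical exposure. Gain or loss of signal fitted in both directions against DMSO baseline.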

[2] = molecular target: human Aurora Kinase A - serine/threonine-protein Kinase 6 (AurA), AURKA (gene 6790) (UniProt O14965); experiment: NVS_ENZ_hAurA: NovaScreen (NVS) Enzymatic Assay for human Aurora Kinase A - serine/threonine-protein Kinase 6 (AurA) (AID 2283142; active = hit-call score of the fitted dose curve at least 0.9, where 1 is the maximum)
In short: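 Recombinant human AurA activity read by fluorescence after mobility-shift separation of product from substrate; 1 hour incubation. Chemicals first run in duplicate at 25 uM, then concentration series to 50 uM if over threshold; fitted relative to DMSO.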

[3] = molecular target: human Protein Tyrosine Phosphatase Receptor Type B (PTPRB), PTPRB (gene 5787) (UniProt P23467); experiment: NVS_ENZ_hPTPRB: NovaScreen (NVS) Enzymatic Assay for human Protein Tyrosine Phosphatase Receptor Type B (PTPRB) (AID 2283211; active = hit-call score of the fitted dose curve at least 0.9, where 1 is the maximum)
[4] = read-out: Cytochrome P450 4A22 (Homo sapiens) (UniProt Q5TCH4); experiment: LTEA_HepaRG_CYP4A22: Life Technologies and Expression Analysis (LTEA) Assay for Cytochrome P450 4A22 (CYP4A22) using HepaRG (AID 2283495); settings: actives raise or lower the signal; mRNA level, 48 h
In short: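 Gene expression measured by qRT-PCR against three housekeeping genes (ACTB, GAPDH, POLR2A), with gain or loss fitted relative to 0.5% DMSO vehicle. HepaRG cultures received 48 h chemical treatment, top concentration 100 uM, half-log steps, duplicate wells.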

[5] = read-out: Heat shock 70 kDa protein 1 (HSPA1A), gene 3303; experiment: LTEA_HepaRG_HSPA1A: Life Technologies and Expression Analysis (LTEA) Assay for Heat shock 70 kDa protein 1 (HSPA1A) using HepaRG (AID 2283502); settings: actives raise or lower the signal; mRNA level, 48 h
In short: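 HepaRG, 48 h exposure, 8-pt half-log CRC from 100 uM in 0.5% DMSO, duplicates. Readout: TaqMan qRT-PCR of HSPA1A mRNA, housekeeping-normalized (ACTB/GAPDH/POLR2A). Bidirectional fit vs 0.5% DMSO baseline.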

[6] = read-out: Monokine induced gamma interferon (MIG), CXCL9 (gene 4283); experiment: BSK_hDFCGF_MIG: BioMAP Diversity Plus: hDFCGF Assay for Monokine induced gamma interferon (MIG) Biomarker Activity (AID 2283063); settings: actives raise or lower the signal; primary human foreskin fibroblasts
In short: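 Human primary foreskin fibroblasts in the hDFCGF system, exposed to test chemical for 24 h; MIG measured by ELISA. Bidirectional curve fitting against DMSO negative control as activity baseline.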

[7] = read-out: Tumor necrosis factor receptor superfamily member 6 (Homo sapiens) (UniProt P25445); experiment: LTEA_HepaRG_FAS: Life Technologies and Expression Analysis (LTEA) Assay for Fas cell surface death receptor (FAS) using HepaRG (AID 2283447); settings: actives raise or lower the signal; mRNA level, 48 h
In short: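 FAS transcript level was measured by TaqMan qRT-PCR against three housekeeping genes after 48 h chemical exposure. Cells were HepaRG, 0.5% DMSO vehicle, with a top concentration of 100 uM and half-log dilutions over eight points, in duplicate.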

TIMP1, TIMP1 (gene 7076) = experiment: LTEA_HepaRG_TIMP1: Life Technologies and Expression Analysis (LTEA) Assay for TIMP1 using HepaRG (AID 2283534); settings: actives raise or lower the signal; mRNA level, 48 h
In short: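 Bidirectional change in TIMP1 transcript versus 0.5% DMSO, measured by TaqMan qRT-PCR with three housekeeping genes for normalization. HepaRG human liver cells dosed 48 h in duplicate, top concentration 100 uM with half-log dilutions.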

[8] = read-out: Interleukin-8 (IL8), CXCL8 (gene 3576); experiment: BSK_hDFCGF_IL8: BioMAP Diversity Plus: hDFCGF Assay for Interleukin-8 (IL8) Biomarker Activity (AID 2283058); settings: actives raise or lower the signal; primary human foreskin fibroblasts
In short: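 IL-8 levels read by ELISA at 24 hours after dosing human skin fibroblast cultures. Parallel SRB staining assessed overt cytotoxicity, and gain or loss of signal was fitted against DMSO control.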

[9] = read-out: Interleukin-8 (IL8), CXCL8 (gene 3576); experiment: BSK_LPS_IL8: BioMAP Diversity Plus: LPS Assay for Interleukin-8 (IL8) Biomarker Activity (AID 2283078); settings: actives raise or lower the signal; primary human HUVEC with PBMC
In short: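 ELISA read-out of IL-8 after 24 h chemical treatment of LPS-activated endothelial/PBMC human primary co-cultures. Changes either up or down relative to DMSO; overt cytotoxicity checked by sulforhodamine B staining in parallel wells.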

[10] = BSK_LPS_PGE2: BioMAP Diversity Plus: LPS Assay for Prostaglandin E2 (PGE2) Biomarker Activity (AID 2283082); settings: actives raise or lower the signal; primary human HUVEC with PBMC;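 note: secreted prostaglandin E2 measured by ELISA in LPS-stimulated co-culture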
In short: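 ELISA read-out of PGE2 from human umbilical vein endothelial cells co-cultured with peripheral blood mononuclear cells under LPS, 24 h post-dose. Gain or loss of signal scored relative to DMSO baseline.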

[11] = read-out: Glutathione S-Transferase (GSTA2), GSTA2 (gene 2939); experiment: LTEA_HepaRG_GSTA2: Life Technologies and Expression Analysis (LTEA) Assay for Glutathione S-Transferase (GSTA2) using HepaRG (AID 2283497); settings: actives raise or lower the signal; mRNA level, 48 h
In short: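 GSTA2 transcript levels came from Fluidigm TaqMan qRT-PCR normalized to three housekeeping genes, fitted in both directions against DMSO. HepaRG cultures received chemicals for 48 h in serum-free induction medium (0.5% DMSO), 8 half-log concentrations up to 100 uM, duplicate.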

[12] = CCTE_Shafer_MEA_dev_firing_rate_mean: CCTE's Neural Network Formation Assay for Mean Firing Rate, Shafer Lab (AID 2284031);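 note: AUC of well mean spike rate recorded on DIV 5 7 9 and 12; curve fitted for loss of firing so AC50 reflects decreased mean firing rate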
In short: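 Read-out: spike count/recording length, averaged over active electrodes, then AUC across days 5, 7, 9, 12. Rat cortical cultures on MEA; continuous 12-day exposure, media and treatment renewed DIV 5, 9; DMSO baseline.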

[13] = CCTE_Shafer_MEA_dev_active_electrodes_number: CCTE's Neural Network Formation Assay for Number of Active Electrodes, Shafer Lab (AID 2284040; active = hit-call score of the fitted dose curve at least 0.9, where 1 is the maximum;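 note: potency for loss of active electrodes versus DMSO so lower counts are hits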)
In short: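 Developing rat cortical networks on MEAs, exposed DIV 0–12. Value is the AUC of active-electrode counts (≥5 spikes/min) from days 5, 7, 9, 12, relative to DMSO.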

[14] = CCTE_Mundy_HCI_Cortical_Synap_Neur_Matur_CellBodySpotCount: CCTE's Synaptogenesis and Neurite Maturation Assay in rat cortical cells for Cell Body Spot Count, Mundy Lab (AID 2284223)
In short: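 High-content imaging counts synaptophysin puncta on neuronal cell bodies per neuron after MAP2/synaptophysin immunostaining. Rat primary cortical cells, glia arrested with AraC at DIV 5, were exposed DIV 7–12; signal decrease measured against DMSO.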

Sequence of UniProt O14965 (O14965 whole entry, looked up): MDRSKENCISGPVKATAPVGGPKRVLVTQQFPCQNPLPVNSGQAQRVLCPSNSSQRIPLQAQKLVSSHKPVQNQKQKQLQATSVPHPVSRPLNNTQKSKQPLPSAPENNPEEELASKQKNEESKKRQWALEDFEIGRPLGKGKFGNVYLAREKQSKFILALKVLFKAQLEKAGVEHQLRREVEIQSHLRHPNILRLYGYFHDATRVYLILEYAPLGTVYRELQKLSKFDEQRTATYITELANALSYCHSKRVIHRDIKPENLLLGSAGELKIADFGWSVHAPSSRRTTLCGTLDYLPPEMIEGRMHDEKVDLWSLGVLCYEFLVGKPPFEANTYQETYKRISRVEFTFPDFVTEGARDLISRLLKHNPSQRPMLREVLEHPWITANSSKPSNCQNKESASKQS
Sequence of UniProt P23467 (P23467 whole entry, looked up): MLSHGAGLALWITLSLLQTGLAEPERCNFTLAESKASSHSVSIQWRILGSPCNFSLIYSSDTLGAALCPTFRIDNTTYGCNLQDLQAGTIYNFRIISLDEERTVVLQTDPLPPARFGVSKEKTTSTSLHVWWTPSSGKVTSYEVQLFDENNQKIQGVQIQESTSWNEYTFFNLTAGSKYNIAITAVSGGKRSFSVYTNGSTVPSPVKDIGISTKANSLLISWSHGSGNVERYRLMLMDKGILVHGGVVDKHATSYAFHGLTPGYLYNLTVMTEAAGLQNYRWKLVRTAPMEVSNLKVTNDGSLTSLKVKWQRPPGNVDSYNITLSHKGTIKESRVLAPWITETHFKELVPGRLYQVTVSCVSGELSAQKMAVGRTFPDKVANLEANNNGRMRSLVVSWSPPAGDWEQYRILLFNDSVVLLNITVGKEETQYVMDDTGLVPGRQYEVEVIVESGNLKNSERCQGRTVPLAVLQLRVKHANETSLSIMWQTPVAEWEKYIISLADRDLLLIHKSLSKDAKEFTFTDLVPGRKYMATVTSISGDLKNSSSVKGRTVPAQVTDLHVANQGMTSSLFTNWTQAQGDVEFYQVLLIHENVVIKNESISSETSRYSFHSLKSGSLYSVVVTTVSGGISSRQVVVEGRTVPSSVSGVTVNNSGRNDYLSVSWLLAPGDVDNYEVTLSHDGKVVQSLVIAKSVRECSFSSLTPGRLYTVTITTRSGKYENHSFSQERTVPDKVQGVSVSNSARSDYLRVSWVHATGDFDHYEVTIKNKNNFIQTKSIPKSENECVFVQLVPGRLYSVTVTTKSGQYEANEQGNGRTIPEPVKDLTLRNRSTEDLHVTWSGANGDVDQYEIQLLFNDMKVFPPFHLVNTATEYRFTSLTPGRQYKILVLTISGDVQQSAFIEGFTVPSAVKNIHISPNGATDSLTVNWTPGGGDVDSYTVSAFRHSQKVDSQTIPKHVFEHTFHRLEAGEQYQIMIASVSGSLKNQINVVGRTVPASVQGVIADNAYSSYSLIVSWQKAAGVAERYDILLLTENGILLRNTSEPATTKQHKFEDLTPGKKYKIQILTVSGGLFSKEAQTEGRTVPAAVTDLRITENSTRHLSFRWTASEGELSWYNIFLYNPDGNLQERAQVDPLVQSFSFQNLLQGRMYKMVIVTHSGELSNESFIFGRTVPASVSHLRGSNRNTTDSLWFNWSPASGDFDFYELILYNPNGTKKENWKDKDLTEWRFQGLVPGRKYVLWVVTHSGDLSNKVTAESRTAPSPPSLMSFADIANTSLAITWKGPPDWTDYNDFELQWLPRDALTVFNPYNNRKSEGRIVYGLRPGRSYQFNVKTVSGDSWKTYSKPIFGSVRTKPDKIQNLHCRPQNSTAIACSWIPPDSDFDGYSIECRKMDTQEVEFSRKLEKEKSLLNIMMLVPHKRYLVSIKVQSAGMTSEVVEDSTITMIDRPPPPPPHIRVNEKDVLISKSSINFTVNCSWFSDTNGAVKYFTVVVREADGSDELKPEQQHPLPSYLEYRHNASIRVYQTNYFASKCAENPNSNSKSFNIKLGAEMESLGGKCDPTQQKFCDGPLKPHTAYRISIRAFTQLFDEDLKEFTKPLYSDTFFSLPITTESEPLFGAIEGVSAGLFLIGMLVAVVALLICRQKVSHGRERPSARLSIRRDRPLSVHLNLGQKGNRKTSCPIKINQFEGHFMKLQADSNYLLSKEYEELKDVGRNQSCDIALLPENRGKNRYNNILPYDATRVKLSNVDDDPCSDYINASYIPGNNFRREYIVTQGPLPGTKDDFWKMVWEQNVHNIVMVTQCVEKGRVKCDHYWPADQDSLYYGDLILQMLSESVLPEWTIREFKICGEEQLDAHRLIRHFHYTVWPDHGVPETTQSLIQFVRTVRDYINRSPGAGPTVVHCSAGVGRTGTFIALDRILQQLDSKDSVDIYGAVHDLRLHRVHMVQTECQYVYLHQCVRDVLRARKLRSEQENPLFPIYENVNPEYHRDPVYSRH
Sequence of Tumor necrosis factor receptor superfamily member 6 (Homo sapiens) (P25445 whole entry, looked up): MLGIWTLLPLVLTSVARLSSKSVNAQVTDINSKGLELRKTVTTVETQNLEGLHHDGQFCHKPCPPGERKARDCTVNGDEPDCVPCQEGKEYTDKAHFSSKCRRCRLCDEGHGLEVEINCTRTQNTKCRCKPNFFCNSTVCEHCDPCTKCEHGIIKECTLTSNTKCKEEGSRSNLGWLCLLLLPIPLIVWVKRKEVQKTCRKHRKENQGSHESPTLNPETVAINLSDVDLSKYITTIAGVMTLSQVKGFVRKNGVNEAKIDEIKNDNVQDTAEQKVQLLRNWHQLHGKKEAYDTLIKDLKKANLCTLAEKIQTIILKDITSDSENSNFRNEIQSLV
Sequence of Cytochrome P450 4A22 (Homo sapiens) (Q5TCH4 whole entry, looked up): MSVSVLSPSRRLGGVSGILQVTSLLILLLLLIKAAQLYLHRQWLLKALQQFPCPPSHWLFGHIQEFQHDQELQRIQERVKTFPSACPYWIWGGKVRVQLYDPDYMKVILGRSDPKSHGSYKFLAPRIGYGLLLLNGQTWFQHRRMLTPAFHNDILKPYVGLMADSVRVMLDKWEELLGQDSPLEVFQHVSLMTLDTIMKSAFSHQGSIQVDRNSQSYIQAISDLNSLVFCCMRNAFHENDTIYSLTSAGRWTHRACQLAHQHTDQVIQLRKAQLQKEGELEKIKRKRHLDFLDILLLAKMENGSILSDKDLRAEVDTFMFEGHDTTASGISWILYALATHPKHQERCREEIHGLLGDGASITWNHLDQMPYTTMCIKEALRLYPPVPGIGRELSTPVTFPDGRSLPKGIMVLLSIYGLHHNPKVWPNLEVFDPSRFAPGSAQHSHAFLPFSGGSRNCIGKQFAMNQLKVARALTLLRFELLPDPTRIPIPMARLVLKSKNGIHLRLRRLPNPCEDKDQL

CCNS(=O)(=O)C(F)(F)C(F)(F)C(F)(F)C(F)(F)C(F)(F)C(F)(F)C(F)(F)C(F)(F)F
AC50 [1]: active: 11.8 µM | outcome [2]: inactive | AC50 [3]: active: 17 µM | outcome [4]: inactive | outcome [5]: inactive

CCOC(=O)[C@]1(c2ccccc2)Oc2ccccc2[C@@H]1N
AC50 [6]: active: 31.4 µM | AC50 [7]: active: 77.4 µM | AC50 (TIMP1, TIMP1 (gene 7076)): active: 84.3 µM

COP(=O)(OC)C(O)C(Cl)(Cl)Cl (stereo not given)
outcome [8]: inactive | outcome [9]: inactive | AC50 [10]: active: 18.4 µM | outcome [11]: inactive | AC50 [12]: active: 21.9 µM | AC50 [13]: active: 50 µM | outcome [14]: inactive
